The other results are listed elsewhere or left out. Repeats are few or missing, and single values can be far off.
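Note: cell number obtained by counting DAPI-stained nuclei in high-throughput microscope images with image analysis software, screen run in 1,536-well plates.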

The test system of the test is RPMI7951. As to the kind of experiment: cell count relative to DMSO control; melanoma cells; higher = more viable cells. The conditions noted are these: library dose: low library concentration; 72 h.
On to `Nc1ccn([C@@H]2O[C@H](CO)[C@@H](O)C2(F)F)c(=O)n1` [gemcitabine] + CC(C)CCN1c2nc(Nc3cc(F)c(O)c(F)c3)ncc2N(C)C(=O)C1C [BID1870] (first compound 0.0004 µM, partner dose 0.2 µM), for which the cell count was 114%.

In the case of `Nc1nc(F)nc2c1ncn2[C@@H]1O[C@H](CO)[C@@H](O)[C@@H]1O` [fludarabine] + N#Cc1c(O)c2c(-c3ccc(-c4ccccc4O)cc3)csc2[nH]c1=O [A769662] (first compound 0.2 µM, partner dose 2 µM), the cell count amounted to 101%.

`Nc1ccn([C@@H]2O[C@H](CO)[C@@H](O)C2(F)F)c(=O)n1` [gemcitabine] + Cc1cc([N+](=O)[O-])ccc1NS(=O)(=O)c1cc(Cl)ccc1Cl [FH535] (first compound 0.0004 µM, partner dose 1 µM) returned a cell count of 93.9%.

In turn, `Nc1ccn([C@@H]2O[C@H](CO)[C@@H](O)C2(F)F)c(=O)n1` [gemcitabine] + Cc1cc(N2CCOCC2)cc2[nH]c(-c3c(NC[C@@H](O)c4cccc(Cl)c4)cc[nH]c3=O)nc12 [BMS536924] (first compound 0.0004 µM, partner dose 0.2 µM) gave a cell count of 115%.

With `Nc1nc(F)nc2c1ncn2[C@@H]1O[C@H](CO)[C@@H](O)[C@@H]1O` [fludarabine] + CO[C@@H]1[C@H](N(C)C(=O)c2ccccc2)C[C@H]2O[C@]1(C)n1c3ccccc3c3c4c(c5c6ccccc6n2c5c31)C(=O)NC4 [Midostaurin] (first compound 0.2 µM, partner dose 0.08 µM), the cell count worked out at 88.8%.

As for `Nc1ncn([C@H]2C[C@H](O)[C@@H](CO)O2)c(=O)n1` [decitabine] + O=C1NC(=O)/C(=C/c2ccc(-c3ccc(F)cc3O)o2)S1 [AS252424] (first compound 0.1 µM, partner dose 1 µM), the cell count was determined as 82%.

For `Nc1ncn([C@H]2C[C@H](O)[C@@H](CO)O2)c(=O)n1` [decitabine] + CC(C)(C)c1cnc(CSc2cnc(NC(=O)C3CCNCC3)s2)o1 [SNS-032] (first compound 0.1 µM, partner dose 0.01 µM), the cell count worked out at 94%.

Compound `Nc1ccn([C@@H]2O[C@H](CO)[C@@H](O)C2(F)F)c(=O)n1` [gemcitabine] + COc1ccc2c(c1)CCC1C2CCC2(C)C(NCCCCCCN3C(=O)C=CC3=O)CCC12 [U73122] (first compound 0.0004 µM, partner dose 0.4 µM) showed a cell count of 82.5%.

For the compound `Nc1ncn([C@H]2C[C@H](O)[C@@H](CO)O2)c(=O)n1` [decitabine] + COc1cc2c(Oc3ccc4[nH]c(C)cc4c3F)ncnc2cc1OCCCN1CCCC1 [cediranib] (first compound 0.1 µM, partner dose 0.4 µM), the cell count was determined as 94.3%.

In the case of `Nc1ncn([C@H]2C[C@H](O)[C@@H](CO)O2)c(=O)n1` [decitabine] + CN(C)S(=O)(=O)c1ccc2c(c1)/C(=C/c1cc3c([nH]1)CCCC3)C(=O)N2 [SU6656] (first compound 0.1 µM, partner dose 0.4 µM), the cell count came out at 82.8%.

`CC(=O)O[C@@]12CO[C@@H]1C[C@H](O)[C@@]1(C)C(=O)[C@H](O)C3=C(C)[C@@H](OC(=O)[C@H](O)[C@@H](NC(=O)OC(C)(C)C)c4ccccc4)C[C@@](O)([C@@H](OC(=O)c4ccccc4)[C@H]21)C3(C)C` [Docetaxel] + COc1cc(N2CCC(N3CCN(C)CC3)CC2)ccc1Nc1ncc(Cl)c(Nc2ccccc2S(=O)(=O)C(C)C)n1 [NVP-TAE684] (first compound 0.0001 µM, partner dose 0.08 µM) had a cell count of 35.9%.

Regarding `Nc1nc(F)nc2c1ncn2[C@@H]1O[C@H](CO)[C@@H](O)[C@@H]1O` [fludarabine] + O=C(Nc1cccc(Cl)c1)Nc1ncc(CCNc2ncnc3ccsc23)s1 [SNS314] (first compound 0.2 µM, partner dose 0.0008 µM), the cell count was 71%.

As to `CC(=O)O[C@@]12CO[C@@H]1C[C@H](O)[C@@]1(C)C(=O)[C@H](O)C3=C(C)[C@@H](OC(=O)[C@H](O)[C@@H](NC(=O)OC(C)(C)C)c4ccccc4)C[C@@](O)([C@@H](OC(=O)c4ccccc4)[C@H]21)C3(C)C` [Docetaxel] + CC(C)CCN1c2nc(Nc3cc(F)c(O)c(F)c3)ncc2N(C)C(=O)C1C [BID1870] (first compound 0.0001 µM, partner dose 0.2 µM), the cell count worked out at 35.6%.

For the origin of these results see the supplement of paper PMC4604168 (melanoma cell lines).
